The source of these data is ChEMBL document CHEMBL1157539, “Thousands of chemical starting points for antimalarial lead identification” (Nature, 2010).

In all, about 13,000 compounds were measured (“IFI”: median about 4, highest 2% from about 17 on). The list shows a part of the results.

The nature of this assay: GSK_TCMDC: Inhibition Frequency Index (IFI). The number of non-kinase HTS assays where a compound showed > 50 % inhibition, expressed as a percentage of the number of such assays in which the compound was tested (-0 is zero). In kind it is functional.
As to `O=C(NCCCCCN1CCC(c2c[nH]c3ccccc23)CC1)c1ccc(Cl)c(Cl)c1`, the IFI is 7.69%.

Compound `O=[N+]([O-])c1cccc(CNCC2CCN(Cc3ccc(-c4ccccc4)cc3)CC2)c1` displayed an IFI of 6.34%. The same measure for `CCNC(=O)c1ccc(-n2nc(C)cc2-c2ccccc2)cc1`: 0.95%; for `CC(C)C[C@@H](/C=N/N1CCOC1=O)NC(=O)[C@H](CC(C)C)NC(=O)c1ccc(F)cc1`: 2.73%. The same measure for `CC(C)(C)c1ccc(CNC(=O)c2cc(CNC3CCNCC3)ccc2O)cc1`: 1.42%; for `N#Cc1ccc(Sc2nnc(-c3ccccc3Cl)n2CC2CCCCC2)cc1[N+](=O)[O-]`: 9.15%; for `COc1ccc2nccc(NC(=O)C3(O)CCC(NCc4ncc5c(c4Cl)OCCO5)CC3)c2n1` (stereo unspecified): 3.7%. `CSc1sc(NC(=O)Nc2cccc(C(F)(F)F)c2)cc1C#N` returned an IFI of 17%. As to `CC1CCN(CC[C@H]2CCCN2S(=O)(=O)c2cccc(NC(=O)Nc3ccc(C(F)(F)F)cc3)c2)CC1`, the IFI was 3.62%. Compound `Cc1cccc2nc(-c3cccc(-c4cccc(CNCC5CCCO5)c4)c3)[nH]c12` (stereo unspecified) had an IFI of 4.95%. The result for `O=C(Nc1ccon1)c1cc(-c2cccnc2)nc2ccc(Br)cc12` reads 4.41%; that for `Cc1ccccc1C1CCN(C2CCC(NC(=O)C3=Cc4ccccc4OC3)CC2)CC1` (stereo unspecified), -0%.

With `COc1ccc(C2C(C(=O)Nc3ccc(C)c(F)c3)c3cc(OC)c(OC)cc3C(=O)N2C)cc1` (stereo unspecified), the IFI is -0%. The result for `CCCC(CNCc1cccc(I)c1)CNc1cc(=O)c2ccccc2[nH]1` (stereo unspecified) reads 4.29%; that for `CC(C)(O)CC(C)(C)c1cc(Cl)ccc1O`, 0.76%; that for `Cc1cc(C)c(C(=O)Nc2ccc3nc(C)cc(N)c3c2)c(C)c1`, 0.7%.

In the case of `O=C(/C=C/c1cccs1)NCC(NCCCNc1cc(=O)c2ccccc2[nH]1)c1cc(Br)cc(Br)c1` (stereo unspecified), the IFI came to 5.88%.

For the compound `COc1ccc(CNC2Cc3ccccc3C2)cc1-c1ccc(S(=O)(=O)NCCc2ccccn2)s1`, the IFI was 8.41%.

`CCc1c(CCNCCc2cccc(CCNCCc3ccc(OC)c(OC)c3CC)c2)ccc(OC)c1OC` showed an IFI of 12.2%. `OC(CN(Cc1ccccc1)Cc1ccccc1)Cn1c2ccc(Cl)cc2c2cc(Cl)ccc21` (stereo unspecified) came in with an IFI of 1.47%. The result for `CCCC(C)N(Cc1ccc(C(C)(C)C)cc1)C(=O)c1ccc(OC)cc1` (stereo unspecified) reads 2.21%. With `Cc1ccc(NC(=O)Nc2ccccc2)cc1-c1ccc(C(=O)Nc2ccncc2)cc1`, the IFI stood at 25.7%. The same measure for `COc1cc2c(cc1C(F)(F)F)N(C(=O)Nc1cccc(-c3ccc(CN(C)C)cc3)c1)CC2`: 6.06%; for `COC(=O)CCCCOc1cc(Cc2cnc(N)nc2N)cc(OC)c1OC`: 0.74%. The same measure for `c1ccc(CCNc2ccnc(Nc3ccc4[nH]nnc4c3)n2)cc1`: 3.23%; for `CCC(=O)c1ccc(-c2ccc(=O)n(CC(=O)N(CCN(CC)CC)Cc3ccc(-c4ccc(C(F)(F)F)cc4)cc3)n2)cc1`: 7.48%. Regarding `CCCNc1nc(NCc2c(C)cccc2C)nc(NC(C)(C)C)n1`, the IFI turned out to be 8.2%. Take `CNc1ccc(CNCc2ccc(-c3ccc(-c4nc5cccc(C)c5[nH]4)cc3)cc2)cc1`: the IFI worked out at 11.3%. The same measure for `CC(C)NC(C)(C)CN(Cc1ccc(-c2ccc(C(F)(F)F)cc2)cc1)C(=O)Cn1c(CCc2cccc(F)c2F)nc(=O)c2ccccc21`: 8.03%; for `COc1ccc(-c2cccc(NC(=O)c3ccc(Cl)cc3)c2)cc1CN1CCNCC1`: 7.77%. The result for `COc1cc(CNC[C@@H](O)[C@H](Cc2ccccc2)NC(=O)c2cc(C3CCCC3)cc(N3CCCCS3(=O)=O)c2)cc(OC)c1` reads 12.1%. As to `COc1ccc(C=NN=c2cc[nH]c3ccccc23)c2ccccc12`, the IFI was determined as 5.52%. `CC(=O)N1CCC(C(=O)Nc2ccc(-c3cccc(-c4nc5cc(C(F)(F)F)ccc5[nH]4)c3)cc2)CC1` had an IFI of 5.61%. Take `N#Cc1ccc(CN2CCCN(Cc3cccc(NC(=O)c4cc5ccccc5s4)c3)CC2)cc1`: the IFI worked out at 7.03%. The result for `CCCCCCNC(=O)C1Cc2c([nH]c3ccc(C)cc23)C2(CCN(Cc3ccccc3)CC2)N1` (stereo unspecified) reads 4.83%; that for `COc1ccccc1-c1ccc2nnc(SCC(=O)Nc3ccc4c(c3)OCCO4)n2n1`, 0.9%.

In turn, `O=C(Nc1ccc(CCNCCCc2ccccc2)cc1)Nc1ccc(Cl)c(Cl)c1` had an IFI of 10.2%. The result for `COc1ccc(CCCON2C(=N)N=C(N)NC2(C)C)cc1` reads 3.85%; that for `C[C@@H](N/C(=N\c1ccc(-c2ccccc2)cc1)Nc1ccc(C#N)cc1O)c1ccc(Br)cc1`, 0.73%; that for `Cc1ccc(C)c2sc(N(CCCn3ccnc3)C(=O)C=Cc3cccs3)nc12`, 4.26%.

Consider `COc1ccc(-c2ccc(CNC(=O)c3ccc(Cl)cc3)c(F)c2)cc1CN1CCCN(C)CC1`, for which the IFI is 11.4%. Consider `O=S(=O)(c1ccc2cc[nH]c2c1)N1CCC[C@@H]1CCN1CCC(c2c[nH]c3cnccc23)CC1`, for which the IFI was found to be 4.93%. The same measure for `O=C(Nc1cccc(-c2cc(-c3c(Cl)cccc3Cl)no2)c1)c1cncc(-c2cccs2)c1`: 0.85%. Consider `Cc1ccc(C2(CN3CCC(NC(=O)c4n[nH]cc4Cl)CC3)CCCCC2)cc1`, for which the IFI was determined as 8.33%. The same measure for `CSC1=NC(C)(C)CC2(CC(c3cccc(C)c3)c3cc(Cl)c(O)cc3O2)N1` (stereo unspecified): 3.47%; for `CCOc1cc(C(=O)NC2CCN(Cc3ccccc3)C2)ccc1-c1nc2cc(Cl)ccc2[nH]1` (stereo unspecified): 2.14%; for `O=C(Nc1ccc(Cl)cc1)Nc1ccc(-c2ccc(-c3nc4ccccc4[nH]3)cc2)cc1`: 1%.

Regarding `O=c1c(Br)ccccc1Br`, the IFI was 11.6%. The result for `CCc1ccc(C2CCN(CCCCNC(=O)c3ccc(NC(=O)c4ccc(Cl)cc4)cc3)CC2)c(OCC(=O)OC)c1` reads 7.21%; that for `c1ccc(-c2nc(Nc3nc4ccccc4[nH]3)[nH]c2-c2ccccc2)cc1`, 5.38%; that for `Cc1nc2nc(N)nc(N)c2c(C)c1Cc1ccccc1I`, 4.08%. The same measure for `C[C@@H](Oc1cc(-n2cnc3cc(SCCN4CCN(C)CC4)ccc32)sc1C(N)=O)c1ccccc1Cl`: 13.7%. Take `O=[N+]([O-])c1cccc(/C=N/Nc2ccnc3cc(F)ccc23)c1`: the IFI turned out to be 1.49%. The result for `O=C(COc1ccccc1)NC1CCN(c2ccnc3cc(Cl)ccc23)C1` (stereo unspecified) reads 3.08%; that for `CC(C)Cc1cn(-c2nc(C(=N)N)cs2)c2cc(Cl)ccc12`, 23.9%; that for `CN1CCCc2ccc(NC(=O)c3cc(-c4ccc(Cl)cc4)cs3)cc2C1`, 6.9%. For the compound `Cc1cccc2nc(-c3cccc(-c4cccc(NC(=O)c5cccnc5)c4)c3)[nH]c12`, the IFI is 3.74%. The same measure for `O=C(Nc1ccc(Oc2ccccc2)cc1)N[C@H]1CCN(Cc2ccc(OCCCN3CCCCC3)cc2)C1`: 7.86%; for `COc1ccc(Cl)cc1S(=O)(=O)Nc1cccc(CCN2CCC(N3CCCCC3)CC2)c1`: 7.81%. `Cc1cccc(OCC(=O)Nc2cccc(NC(=O)COc3cccc(C)c3)n2)c1` showed an IFI of 0.76%. The same measure for `Cc1cc(C)cc(OCC(O)CN(Cc2cc(Cl)cc(Cl)c2)C(=O)Nc2ccc(Cl)cc2)c1` (stereo unspecified): 4.17%; for `Cc1cccc2nc(C3CCN(CC4CCN(C(=O)/C=C/c5ccc(Cl)c(Cl)c5)CC4)CC3)[nH]c12`: 2.9%; for `CC(C)C(C(=O)Nc1ccc(S(=O)(=O)N(C)C)cc1)c1ccc(Cl)cc1` (stereo unspecified): 16.2%. As to `Cc1sc(CNCCCNc2cc(=O)c3ccccc3[nH]2)c(I)c1C`, the IFI was 4.29%.

Take `O=C(Nc1cccc(CN2CCCN(Cc3ncc[nH]3)CC2)c1)c1cc2ccccc2s1`: the IFI turned out to be 3.05%. The result for `CC(=O)Nc1ccc(Nc2cc(C)nc(Nc3ccc(NC(C)=O)cc3)n2)cc1` reads 2.88%; that for `CCN1CCCC(Nc2ccnc3cc4ccccc4cc23)C1` (stereo unspecified), 4.41%; that for `Cc1nc2ccc(S(=O)(=O)Nc3ccc(C(=O)N[C@@H](CCC(=O)O)C(=O)O)cc3)cc2c(=O)[nH]1`, 0.76%. Consider `COc1ccc2c(c1)S(=O)(=O)N=C(N1CCCC1c1ccc(Cl)c(Cl)c1)N2C` (stereo unspecified), for which the IFI turned out to be 1.59%. The result for `CC(CN(C)C)C(=O)Nc1cccc(-c2ccc(-c3nc4ccccc4[nH]3)cc2)c1` (stereo unspecified) reads 5.45%; that for `Cc1nc2ccc3ccc(CNc4ccc(C#N)cc4)cc3c2c(=O)[nH]1`, 2.13%; that for `CCOC(=O)NC1=NC(C)(C)N(OCc2cccc3c2ccc2ccccc23)C(NC(=O)OCC)=N1`, -0%. The same measure for `Cc1cccc(NC(=O)Nc2cccc(-c3ccc(-c4nc5cc(C(F)(F)F)ccc5[nH]4)cc3)c2)c1`: 6.45%; for `COc1cc(C)nc2ccc(NC(=O)Nc3ccc4nc(C)cc(OC)c4c3)cc12`: 2.19%; for `CC1(C)NC(N)=NC(=N)N1OCCCCCOc1ccccc1`: 3.5%.

In the case of `O=C(Nc1nc2cc(S(=O)(=O)NCCc3ccc(F)cc3)ccc2n1CCCn1ccnc1)c1ccc(Cl)cc1`, the IFI worked out at 2.03%.

`O=S(=O)(c1ccc(OC(F)(F)F)cc1)C1CC2CCC(C1)N2S(=O)(=O)c1ccc(Cl)c(C(F)(F)F)c1` (stereo unspecified) registered an IFI of 1.72%. For `CCOc1ccc(C(=O)Nc2cc3c(c(C(F)(F)F)c2)CCNC3)cc1Cl`, the IFI was found to be 3.91%.

In turn, `COc1ccc(-c2cccc(NC(=O)c3cccc(C#N)c3)c2)cc1CN1CCC(O)CC1` gave an IFI of -0%. The result for `COc1ccc(C2CC(c3cccs3)=NN2C(=O)c2ccccc2)cc1OC` (stereo unspecified) reads 1.39%; that for `O=C(C=Cc1ccccc1)Nc1ccc(C#CC=Cc2ccc(NC(=O)C=Cc3ccccc3)cc2)cc1`, 1.45%. The same measure for `Fc1cccc(Cn2ncc3cc(Nc4ncnc5sc(C#Cc6ncc[nH]6)cc45)ccc32)c1`: 1.74%; for `Nc1nc(N)c2c3c(cnc2n1)CCCC3`: 2.13%; for `CCOc1ccc(-c2n[nH]c(C(F)(F)F)c2-c2ccccc2OC)c(O)c1`: 7.04%. Consider `CS(=O)(=O)CCNCc1cccc(-c2cc3c(Nc4ccc(OCc5ccccc5)cc4)ncnc3cn2)c1`, for which the IFI amounted to 1.42%. The same measure for `Cc1ccc(-c2nc(N3CCN(C(=O)c4ccco4)CC3)c3ccc(Cl)cc3n2)cc1`: 0%. The result for `CCOc1cc(/C=N/Nc2nc3ccccc3[nH]2)ccc1OCc1ccc([N+](=O)[O-])cc1` reads 0.75%; that for `COc1ccc(NC(=O)/C=C/c2ccccc2Cl)cc1OCCN1CCC(c2nc3ccccc3[nH]2)CC1`, 2.86%. The same measure for `Oc1ccc(CCNc2nc(NCCOc3ccccc3-c3ccccc3)nc(N3CCNCC3)n2)cc1`: 20%; for `CN(C)Cc1ccc(-c2ccc(NC(=O)c3ccc4c(=O)n(Cc5ccoc5)cnc4c3)cc2)cc1`: 4.72%; for `O=C(Nc1cccc(Cl)c1Cl)NC1CCN(Cc2cccc(O)c2)CC1`: 2.33%.
